Experimental data published in article PMC4336329 (PLoS ONE, 2015).
The whole screen tested about 310,000 compounds, of which about 2,200 (0.71%) showed an effect of 50% or more. Effects have a minus sign here. The list shows a part of the results.

Biological target: human ether-à-go-go-related gene (hERG) potassium channel (human, UniProt Q12809)
Test: primary screen, population patch clamp on CHO cells stably expressing hERG

Chain of human ether-à-go-go-related gene (hERG) potassium channel (Q12809 whole entry, looked up): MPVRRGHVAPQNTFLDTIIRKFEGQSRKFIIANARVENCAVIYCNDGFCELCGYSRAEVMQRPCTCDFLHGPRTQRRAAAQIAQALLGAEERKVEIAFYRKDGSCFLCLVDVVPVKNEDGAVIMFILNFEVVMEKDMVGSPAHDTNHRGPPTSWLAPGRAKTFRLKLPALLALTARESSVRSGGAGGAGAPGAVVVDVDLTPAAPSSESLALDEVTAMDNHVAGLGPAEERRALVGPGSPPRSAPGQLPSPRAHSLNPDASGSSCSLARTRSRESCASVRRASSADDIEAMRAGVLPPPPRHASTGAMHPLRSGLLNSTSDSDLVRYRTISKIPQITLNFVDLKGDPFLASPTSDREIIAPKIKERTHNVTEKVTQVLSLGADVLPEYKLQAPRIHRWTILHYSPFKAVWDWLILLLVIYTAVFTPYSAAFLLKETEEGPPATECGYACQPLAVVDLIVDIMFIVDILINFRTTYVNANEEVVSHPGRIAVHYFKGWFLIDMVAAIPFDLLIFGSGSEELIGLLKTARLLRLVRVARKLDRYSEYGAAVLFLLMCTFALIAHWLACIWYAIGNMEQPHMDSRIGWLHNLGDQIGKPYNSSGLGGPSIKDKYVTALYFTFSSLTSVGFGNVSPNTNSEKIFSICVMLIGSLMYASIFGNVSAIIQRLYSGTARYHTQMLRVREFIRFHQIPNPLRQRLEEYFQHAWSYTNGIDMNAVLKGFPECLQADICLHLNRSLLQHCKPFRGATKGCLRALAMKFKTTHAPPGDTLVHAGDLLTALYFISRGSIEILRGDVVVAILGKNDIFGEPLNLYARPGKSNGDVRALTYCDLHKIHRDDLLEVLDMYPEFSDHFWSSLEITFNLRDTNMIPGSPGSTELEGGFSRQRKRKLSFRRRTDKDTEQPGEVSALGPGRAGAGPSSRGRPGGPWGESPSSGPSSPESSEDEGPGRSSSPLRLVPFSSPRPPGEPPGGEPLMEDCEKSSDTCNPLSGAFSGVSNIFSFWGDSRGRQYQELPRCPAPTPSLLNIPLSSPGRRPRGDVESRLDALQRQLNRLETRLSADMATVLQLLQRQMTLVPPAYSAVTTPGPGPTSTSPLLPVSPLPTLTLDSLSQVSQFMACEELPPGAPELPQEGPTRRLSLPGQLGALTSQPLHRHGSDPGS

Structure (SMILES)	hERG current change (%, negative = inhibition) at 1uM
CC(C)C(=O)N/N=C/c1ccc(OCc2ccccc2)cc1	23%
CCCNc1c(NC(C)=O)c(=O)oc2ccccc12	11.1%
CS(=O)(=O)N1CCN(C(=O)NC2CCCCC2)CC1	13%
COc1cc2ccccc2cc1C(=O)Nc1ccc(Cl)cn1	23.4%
CNc1[nH]c(=O)[nH]c(=O)c1N=Nc1cc(Cl)ccc1Cl	13.9%
COc1cnc(-c2ccccc2)[nH]c1=O	-3.03%
COC(=O)Cn1cc(/C=C/[N+](=O)[O-])c2ccccc21	0.326%
O=C(Nc1cccc(S(=O)(=O)N2CCOCC2)c1)C1CCN(S(=O)(=O)c2ccccc2)CC1	2.73%
COc1cccc(CN2CCNCC2)c1.Cl	19.6%
C#CCOCCOCCOCCNc1nc(N2CCN(C(=O)CCCCCCCCCCNC(=O)[C@@H](CCSC)n3cc(CCO)nn3)CC2)nc(N2CCN(C(=O)CCCCCCCCCCNC(=O)[C@H](CCSC)n3cc(CCO)nn3)CC2)n1	13.3%
CC(NC(=O)c1ccccc1F)C(=O)O (centres unmarked)	16.8%
FC(F)(F)c1cc(CCN2CCNC[C@@H]2Cc2ccccc2)cc(C(F)(F)F)c1	12.7%
CCOc1ccc(CCNc2nc3ccc(C)cc3n3cnnc23)cc1OCC	-8.96%
CCc1ccc(CN(C)Cc2nc(-c3cccc(Cl)c3)no2)nc1	8.72%
Cc1cc(NC(=O)CSc2nncn2N)no1	13.2%
Cc1ccc(NC(=O)CN(C)C(=O)Cn2cc(C(F)(F)F)cc(Cl)c2=O)cc1	8.72%
NC(=O)c1ccc(C(=O)c2ccc([N+](=O)[O-])cc2)cc1	5.39%
CN1CCN(S(=O)(=O)c2ccc(Oc3ccc(Br)cc3F)nc2)CC1	1.32%
Cc1c(NC(=O)CSCc2c(F)cccc2Cl)c(=O)n(-c2ccccc2)n1C	5.27%
O=P1(Oc2ccccc2)CC=C[C@H](COCc2ccccc2)O1 (some centres unmarked)	18.4%
O=C(c1cccc(S(=O)(=O)N2CCc3ccccc3C2)c1)N1CCN(c2ccccc2)CC1	16%
Cc1c(CC(=O)O)c(=O)oc2cc(OCc3ccc(Cl)cc3)ccc12	12.8%

Structure (SMILES)	hERG current change (%, negative = inhibition) at 1uM
CCC(CC)c1ncc[nH]1	16.1%
CCOC(=O)c1c(-c2ccc(OC)cc2)csc1NC(=O)COc1ccc2c(C)cc(=O)oc2c1	11.1%
Cc1ccc(C(=O)CCC(=O)CCC(=O)O)cc1	7.61%
Cc1ccsc1/C=N/NC(=O)Nc1ccccc1	14.1%
Cn1cc([N+](=O)[O-])c(C(=O)Nc2ccc(-c3nc4ccccc4o3)cc2)n1	17.1%
CN(CC(=O)Nc1ccncc1)S(=O)(=O)c1ccccc1	5.39%
N#CC(C#N)=Cc1cc2ccccc2nc1N1CCCCC1	7.85%
COc1ccc(-n2nc3c(N4CCC(C(=O)NC5CCCCC5)CC4)nnc(C)c3c2C)cc1	14.6%
O=C(NCCN1CCCC1=O)Nc1ccccc1	2.75%
COc1ccc2cc3c(N)nn(C(=O)c4cccc(F)c4)c3nc2c1	8.88%
COc1ccc(-c2c(-c3cc(OC)cc(OC)c3)n(C)c3ccc(-c4ccc(OC)nc4)cc23)cc1	8.97%
O=[N+]([O-])c1cccc(S(=O)(=O)NCc2ccncc2)c1	12.3%
Nc1nonc1-n1nnc(C(=O)N/N=C\c2cccc(Cl)c2)c1CN1CCOCC1	-1.03%
CC(C)(C)NC(=O)CN(Cc1ccc2c(c1)OCO2)C(=O)CNC(=O)c1cccs1	1.94%
CCOc1ccc(C(=O)NCCN2CCCCC2)c(OCC)c1	0.113%
COc1ccc(NC2CCCN(C(=O)CSc3ccccc3)C2)cc1OC (centres unmarked)	4.34%
COc1ccc(CN2CCNC(=O)C2CC(=O)N(C)Cc2ccncn2)c(OC)c1 (centres unmarked)	10.9%
COCc1ccc(-c2c(-c3ccsc3)sc3ccccc23)cc1	14.7%
CCCn1nnc(NC(=O)C(c2ccccc2)c2ccccc2)n1	10.2%
Nc1nc(-c2ccco2)nn1C(=O)CCc1ccccc1	6.41%
O=C(CNC(=S)N(Cc1ccccc1)Cc1cccnc1)N1CCOCC1	20.4%
CCOc1ccc(NC(=O)Cc2c(C(=O)O)n(C)c3ccccc23)cc1	14.1%

Structure (SMILES)	hERG current change (%, negative = inhibition) at 1uM
COC(=O)c1ccc(Nc2cc(C)nc3ccccc23)cc1.Cl	-8.87%
O=C(CN1C(=O)COc2ccc(Cl)cc21)N1CCc2ccccc21	3.63%
CCOC(=O)N1CCN(C(=O)c2ccc3c(c2)N(C)C(=O)/C(=C\c2ccc(OCC)c(OC)c2)S3)CC1	4.92%
COc1ccc2cc(CN(Cc3ccco3)C(=S)NCC3CCCO3)c(=O)[nH]c2c1 (centres unmarked)	13.7%
N#CCCN(C1CCCCC1)S(=O)(=O)CCOc1ccccc1	13.1%
COc1ccc(NC(=O)c2cccc(S(=O)(=O)N3CCOCC3)c2)cc1	-1.57%
CCOC(=O)N1CCN(C(=O)C2CCCN(c3ncnc4c3nc3n4CCCCC3)C2)CC1 (centres unmarked)	-5.14%
O=C(NCc1cccs1)c1nc2ncccn2n1	7.67%
O=C1CC(C(=O)N2CCN(S(=O)(=O)c3cccc(F)c3)CC2)CN1Cc1ccccc1Cl (centres unmarked)	0.225%
COc1ccc(NC(=O)CC2C(=O)N(C)C(=S)N2Cc2ccc3c(c2)OCO3)cc1 (centres unmarked)	-4.34%
N#CC1CCN(C(=O)c2ccc3c(Cl)c4c(nc3c2)CCCC4)CC1	7.08%
COc1ccc(/C(C)=N/N=C2/NC(=O)CC(C(=O)O)S2)cc1 (centres unmarked)	5.89%
CCOC(=O)c1ccc(N2CN(CCc3ccccc3)CNC2=S)cc1	7.78%
COc1ccc(C)cc1Nc1n[n+](-c2ccccc2)c(-c2ccc(N(C)C)cc2)s1.[Cl-]	-6.88%
COc1ccc(S(=O)(=O)c2c(O)c3ccc(C(=O)Nc4ccc(F)cc4)cc3[nH]c2=O)cc1	11.2%
Cc1c2cnn(CC(=O)N3CCN(c4ncccn4)CC3)c(=O)c2c(C)n1Cc1ccc(F)cc1	6.47%
COc1ccc(NC(=O)CSc2nc(O)c(Cc3ccccc3)c(=O)[nH]2)cc1	8.66%
O=C(NC1=NCCS1)c1ccc(-c2ccc(Cl)cc2)o1	-1.77%
O=C(C1=C[C@H](C2CC2)C[C@H](OCc2ccc(CO)cc2)O1)N1CCN(Cc2ccccc2)CC1	-8.6%
COc1ccc(N/C(=C2\CCCC2=O)C2CCCCC2)cc1	15.8%
CCN(CCCNC(=O)Cn1ncc2c([nH]c3ccc(C)cc32)c1=O)c1cccc(C)c1	12.8%
CCN(CC)S(=O)(=O)c1ccc(Cl)c(C(=O)N2CCc3ccccc32)c1	-5.53%

Structure (SMILES)	hERG current change (%, negative = inhibition) at 1uM
O=C(O)c1cc(N/N=C/c2cccc3ccccc23)ccc1Cl	5.2%
O=C(CCC1N=C2c3ccccc3N=C(SCc3ccccc3Cl)N2C1=O)NCc1ccco1 (centres unmarked)	-1.51%
COc1cccc(CC(NC(C)=O)C(=O)NC2CCN(c3nc(C)cc(C)c3C#N)CC2)c1OC (centres unmarked)	-5.03%
CC(OC(=O)CNC(=O)C12CC3CC(CC(C3)C1)C2)C(=O)Nc1ccc(N2CCOCC2)cc1 (centres unmarked)	-5.82%
CC(C)N(C(=NCc1ccccc1)NC(=O)c1ccccc1)C(C)C	3.4%
O=C(CC1CCCCC1)NCCOc1ccccc1	4.35%
N#Cc1ccccc1OCC(=O)NCC(c1ccc(F)cc1)N1CCOCC1 (centres unmarked)	2.06%
CCSc1ncc(Cl)c(C(=O)Nc2ccc(S(N)(=O)=O)cc2)n1	7.59%
O=C(N1CCN(c2ccccc2F)CC1)C1(S(=O)(=O)c2ccc(Cl)cc2)CC1	13.1%
O=C(Cc1ccccc1)Nc1ccc(NC(=O)c2ccccc2)nc1	4.52%
C/C(=N\Nc1cccc(C(F)(F)F)c1)c1ccc(O)cc1	14%
CN1CCN(NC(=O)c2cccc(F)c2)CC1	6.98%
Cc1ccc2nc(NC(=O)c3ccc(Cl)s3)sc2c1	5.88%
Cc1cc(N/C=C\c2nnnn2-c2ccccc2)no1	14%
CN1c2ccc([N+](=O)[O-])cc2CC2(C(=O)NC(=O)N(c3ccc(Br)cc3)C2=O)C1c1ccccc1 (centres unmarked)	6.34%
CCN1C(=O)/C(=C2\SC(N3CCCCC3)=NC2=O)c2ccccc21	6.75%
O=C(NC1CCCC1)c1ccc(S(=O)(=O)N2CCCC2)cc1	16.2%
CSc1ccc(/C=C/C(=O)OCC(=O)N2CCN(S(=O)(=O)c3ccc(C)cc3C)CC2)cc1	11.8%
COc1ccc2[nH]c(C)c(CN3CCCCC3)c(=O)c2c1	10%
COC(OC)c1ccnc(-c2ccc(OC(=O)c3cccs3)cc2)n1	-8.28%
